Measurements reported in PMC4336329 (PLoS ONE, 2015).
Screen size: about 310,000 compounds; about 2,200 (0.71%) showed an effect of 50% or more. The effect is printed as a negative number. The list shows a part of the results.

target: human ether-à-go-go-related gene (hERG) potassium channel (human, UniProt Q12809); test: primary screen, population patch clamp on CHO cells stably expressing hERG
Sequence (Q12809 whole entry, looked up): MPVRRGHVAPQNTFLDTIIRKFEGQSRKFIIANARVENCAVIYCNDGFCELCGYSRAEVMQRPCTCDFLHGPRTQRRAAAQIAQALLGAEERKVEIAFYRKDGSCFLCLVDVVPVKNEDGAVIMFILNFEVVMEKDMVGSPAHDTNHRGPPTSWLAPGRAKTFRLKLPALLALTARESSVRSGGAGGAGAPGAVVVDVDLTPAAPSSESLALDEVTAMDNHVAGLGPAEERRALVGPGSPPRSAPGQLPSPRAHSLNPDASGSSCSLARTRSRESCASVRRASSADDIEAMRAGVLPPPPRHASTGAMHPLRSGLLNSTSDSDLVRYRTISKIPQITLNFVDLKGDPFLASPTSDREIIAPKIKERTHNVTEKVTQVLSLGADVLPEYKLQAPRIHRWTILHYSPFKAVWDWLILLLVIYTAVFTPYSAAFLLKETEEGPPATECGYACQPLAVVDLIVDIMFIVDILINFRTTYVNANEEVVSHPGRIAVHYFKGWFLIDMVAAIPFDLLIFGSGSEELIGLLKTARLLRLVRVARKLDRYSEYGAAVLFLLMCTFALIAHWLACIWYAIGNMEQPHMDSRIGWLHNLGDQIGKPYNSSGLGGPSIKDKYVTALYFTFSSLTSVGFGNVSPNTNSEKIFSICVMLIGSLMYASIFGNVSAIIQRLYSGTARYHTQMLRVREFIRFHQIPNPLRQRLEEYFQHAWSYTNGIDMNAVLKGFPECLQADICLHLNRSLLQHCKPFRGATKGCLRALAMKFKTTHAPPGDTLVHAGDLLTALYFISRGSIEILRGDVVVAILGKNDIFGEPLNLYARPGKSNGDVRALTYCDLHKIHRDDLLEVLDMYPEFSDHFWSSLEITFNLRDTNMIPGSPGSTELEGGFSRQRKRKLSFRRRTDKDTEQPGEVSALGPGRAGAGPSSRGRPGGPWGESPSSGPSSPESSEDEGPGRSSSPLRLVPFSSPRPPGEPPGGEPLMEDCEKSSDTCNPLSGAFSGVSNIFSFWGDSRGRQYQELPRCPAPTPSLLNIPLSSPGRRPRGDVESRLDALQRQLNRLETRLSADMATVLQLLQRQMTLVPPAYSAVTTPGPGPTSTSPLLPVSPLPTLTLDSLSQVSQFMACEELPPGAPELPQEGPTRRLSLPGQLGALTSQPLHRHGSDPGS

Q: How did the “hERG current change (%, negative = inhibition) at 1uM” value turn out when `O=C(NCCc1ccccc1)/C(=C\c1ccccc1)NC(=O)c1ccco1` was run?
A: 9.3%

Q: `Cc1cc(CNC(=S)Nc2ccc(Br)cc2Cl)nn1C` was tested. Which “hERG current change (%, negative = inhibition) at 1uM” value did it give?
A: -19%

Q: `CC(=O)Nc1ccc(C(=O)OCC(=O)c2cccc([N+](=O)[O-])c2)cc1` was tested. Which “hERG current change (%, negative = inhibition) at 1uM” value did it give?
A: 7.97%

Q: For `CCC(C(=O)NCc1ccc(F)cc1)n1nc(C)n2c(cc3occc32)c1=O` (centres unmarked), which “hERG current change (%, negative = inhibition) at 1uM” value is on record?
A: 5.24%

Q: With `Cn1ccc(-c2cc(C(=O)O)c3ccccc3n2)n1` as the compound, how does the “hERG current change (%, negative = inhibition) at 1uM” value read?
A: 19.3%

Q: Which “hERG current change (%, negative = inhibition) at 1uM” value does the source give for `COc1ccc(-c2nnc(N(C)C(=O)c3ccco3)s2)cc1OC` here?
A: 12.4%

Q: Which “hERG current change (%, negative = inhibition) at 1uM” value does the source give for `O=C1Nc2cccnc2Sc2ccccc21` here?
A: 12.2%

Q: With `O=C1C(Nc2ccccc2)=CC(c2ccc(O)cc2)N1c1ccccc1` (centres unmarked) as the compound, how does the “hERG current change (%, negative = inhibition) at 1uM” value read?
A: 12.6%

Q: With `O=C(CSc1nnc(CNc2ccc(F)cc2)n1Cc1ccco1)NC1CC1` as the compound, how does the “hERG current change (%, negative = inhibition) at 1uM” value read?
A: 8.16%

Q: With `Nc1nc(-c2ccco2)cs1` as the compound, how does the “hERG current change (%, negative = inhibition) at 1uM” value read?
A: 12.4%

Q: How did the “hERG current change (%, negative = inhibition) at 1uM” value turn out when `Cn1c(CCNS(=O)(=O)c2ccccc2)nc2cc([N+](=O)[O-])ccc21` was run?
A: 8.07%

Q: How did the “hERG current change (%, negative = inhibition) at 1uM” value turn out when `C[C@H](NC(=O)c1ccccc1Cl)C(=O)OCCOc1ccc(Cl)cc1` was run?
A: 6.73%

Q: `O=C(c1ccc(N2CCN(C(=O)c3ccc(F)c(F)c3)CC2)cc1)c1cccc(F)c1` was tested. Which “hERG current change (%, negative = inhibition) at 1uM” value did it give?
A: -13.2%

Q: `Cc1ccc2oc(/N=C(\N)NC(=O)C3CC3)nc2c1` was tested. Which “hERG current change (%, negative = inhibition) at 1uM” value did it give?
A: 14.7%

Q: With `CC[n+]1c(P(=O)([O-])c2ccccc2)[nH]c2ccccc21` as the compound, how does the “hERG current change (%, negative = inhibition) at 1uM” value read?
A: -11.7%

Q: How did the “hERG current change (%, negative = inhibition) at 1uM” value turn out when `O=C(Cn1ncn2c(cc3ccccc32)c1=O)NCCc1cccs1` was run?
A: 3.23%

Q: `CCN1CCN(c2ccc(S(=O)(=O)N3CCOCC3)cc2NC(=O)CCC(C)C)CC1` was tested. Which “hERG current change (%, negative = inhibition) at 1uM” value did it give?
A: -8.46%

Q: `CNC(=O)Nc1ccc(C(=O)N/N=C\C23CC[C@@H](O)CC2(O)CC[C@@H]2[C@@H]3CCC3(C)C(C4=CC(=O)OC4)CCC23O)cc1` (some centres unmarked) was tested. Which “hERG current change (%, negative = inhibition) at 1uM” value did it give?
A: 5.23%

Q: How did the “hERG current change (%, negative = inhibition) at 1uM” value turn out when `O=C(Nc1cccc(F)c1)c1cccnc1` was run?
A: 8.69%

Q: For `Cc1cc(=O)oc2cc(OCC(=O)Nc3ccc(CN4CCOCC4)cc3)ccc12`, which “hERG current change (%, negative = inhibition) at 1uM” value is on record?
A: 12.5%

Q: `COc1ccc(NC(=O)CSc2nccn2-c2cccc(OC)c2)cc1` was tested. Which “hERG current change (%, negative = inhibition) at 1uM” value did it give?
A: 10.3%

Q: With `Cc1ccc(S(=O)(=O)Nc2nc3ccccc3s2)cc1[N+](=O)[O-]` as the compound, how does the “hERG current change (%, negative = inhibition) at 1uM” value read?
A: 1.5%

Q: `N/C(=N\OC(=O)CCC1CCCCC1)c1cccnc1` was tested. Which “hERG current change (%, negative = inhibition) at 1uM” value did it give?
A: 5.19%

Q: Which “hERG current change (%, negative = inhibition) at 1uM” value does the source give for `COc1ccc(OC)c(N(CC(=O)NCc2cccnc2)S(C)(=O)=O)c1` here?
A: 7.2%

Q: `Cc1cc(C)c(NC(=O)COC(=O)CSc2ccc(Br)cc2C)c(C)c1` was tested. Which “hERG current change (%, negative = inhibition) at 1uM” value did it give?
A: 3.66%

Q: Which “hERG current change (%, negative = inhibition) at 1uM” value does the source give for `Cc1c(NC(=O)c2cc3nc(-c4ccc(Br)cc4)cc(C(F)(F)F)n3n2)c(=O)n(-c2ccccc2)n1C` here?
A: -3.99%

Q: How did the “hERG current change (%, negative = inhibition) at 1uM” value turn out when `O=C(CC(n1cncn1)C(Cl)(Cl)Cl)c1ccc([N+](=O)[O-])cc1` (centres unmarked) was run?
A: -14.3%

Q: `COc1ccc(NC(=O)C(C)NS(=O)(=O)c2ccc(NC(C)=O)cc2)cc1Cl` (centres unmarked) was tested. Which “hERG current change (%, negative = inhibition) at 1uM” value did it give?
A: 3.36%

Q: How did the “hERG current change (%, negative = inhibition) at 1uM” value turn out when `Cc1ccc2cc(CN(Cc3ccco3)S(=O)(=O)c3c(C)ccc4nsnc34)c(=O)[nH]c2c1` was run?
A: 9.99%

Q: For `CCN(CC)C(=S)SCC(=O)c1ccc(F)cc1`, which “hERG current change (%, negative = inhibition) at 1uM” value is on record?
A: 8.42%

Q: For `Nc1nonc1-n1nnc(C(=O)N/N=C/c2ccc(OCc3ccccc3)cc2)c1CNc1ccccc1`, which “hERG current change (%, negative = inhibition) at 1uM” value is on record?
A: 10.1%

Q: For `O=C(NCc1ccc(F)cc1)c1nc(-c2cccs2)no1`, which “hERG current change (%, negative = inhibition) at 1uM” value is on record?
A: 6.56%

Q: Which “hERG current change (%, negative = inhibition) at 1uM” value does the source give for `Cn1cc(CN(Cc2ccccc2)C[C@@H]2CCC(=O)N2)c(-c2ccccc2F)n1` here?
A: 0.0302%

Q: For `O=c1[nH]cc(C(F)(F)F)cc1NS(=O)(=O)c1ccccc1[N+](=O)[O-]`, which “hERG current change (%, negative = inhibition) at 1uM” value is on record?
A: -0.0558%

Q: How did the “hERG current change (%, negative = inhibition) at 1uM” value turn out when `CCC(C)C(=O)Nc1nccs1` (centres unmarked) was run?
A: 16.4%

Q: `O=C(CCCCC(=O)NCc1cccs1)NCc1cccs1` was tested. Which “hERG current change (%, negative = inhibition) at 1uM” value did it give?
A: 11.4%

Q: For `C=CCn1c(SCC(=O)NC(N)=O)nnc1-c1cc2c(s1)CCC(CC)C2` (centres unmarked), which “hERG current change (%, negative = inhibition) at 1uM” value is on record?
A: 4.36%

Q: For `COc1cccc(/C=C/C(=O)Nc2ccc3c(c2)OCCO3)c1`, which “hERG current change (%, negative = inhibition) at 1uM” value is on record?
A: 8.79%

Q: `O=S(=O)(NCCCCCNS(=O)(=O)c1ccc(F)cc1)c1ccc(F)cc1` was tested. Which “hERG current change (%, negative = inhibition) at 1uM” value did it give?
A: 8.17%

Q: Which “hERG current change (%, negative = inhibition) at 1uM” value does the source give for `CC1(C)CC2(C)OCCN2C(=S)N1` (centres unmarked) here?
A: 5.78%

Q: How did the “hERG current change (%, negative = inhibition) at 1uM” value turn out when `CCOc1ccc(-c2noc(CCCC(=O)NC3CCCC3)n2)cc1OC` was run?
A: 18.4%

Q: Which “hERG current change (%, negative = inhibition) at 1uM” value does the source give for `CCn1c(SCC(=O)N2CCCCC2C)nc2ccsc2c1=O` (centres unmarked) here?
A: 4.89%

Q: With `COc1ccc(Nc2c3c(nc4ccc(C)cc24)CCC3)cc1.Cl` as the compound, how does the “hERG current change (%, negative = inhibition) at 1uM” value read?
A: -26.3%

Q: How did the “hERG current change (%, negative = inhibition) at 1uM” value turn out when `CCOc1ccc(C2=NNC(c3cccs3)=Nc3ccc(OCC)cc32)cc1` was run?
A: 21.9%

Q: With `Cc1nc(SCC(=O)Nc2ccc(C)c(F)c2)c2oc3ccccc3c2n1` as the compound, how does the “hERG current change (%, negative = inhibition) at 1uM” value read?
A: 5.17%

Q: Which “hERG current change (%, negative = inhibition) at 1uM” value does the source give for `C=CCn1c(=NC(=O)c2cccc(N3C(=O)CCC3=O)c2)sc2cccc(OC)c21` here?
A: 3.05%

Q: With `Cl.O=C(COc1ccc(F)cc1)NCCN1CCCC1` as the compound, how does the “hERG current change (%, negative = inhibition) at 1uM” value read?
A: 6.62%

Q: How did the “hERG current change (%, negative = inhibition) at 1uM” value turn out when `CCCN1CCC(=O)N([C@H](CSc2ccc(Br)cc2)c2ccccc2)CC1` was run?
A: -17.5%

Q: With `Cl.N=c1n(Cc2ccc(Cl)cc2)c2ccccc2n1CC(O)c1ccco1` (centres unmarked) as the compound, how does the “hERG current change (%, negative = inhibition) at 1uM” value read?
A: -39.2%

Q: Which “hERG current change (%, negative = inhibition) at 1uM” value does the source give for `CC1CCN(Cc2cc(=O)oc3cc4c(cc23)CCCC4)CC1` here?
A: 16.4%

Q: `COc1ccc(-c2nc3ncccc3n2O)cc1` was tested. Which “hERG current change (%, negative = inhibition) at 1uM” value did it give?
A: 14%

Q: With `O=C(CNC(=O)c1sc2ccccc2c1Cl)Nc1ccccc1F` as the compound, how does the “hERG current change (%, negative = inhibition) at 1uM” value read?
A: 4.22%

Q: For `COc1ccc(N=C(N)N=C(N)N)c(OC)c1`, which “hERG current change (%, negative = inhibition) at 1uM” value is on record?
A: 15.3%

Q: For `COCCN(C(=O)COC(=O)c1ccc(C)o1)c1c(N)n(Cc2ccccc2)c(=O)[nH]c1=O`, which “hERG current change (%, negative = inhibition) at 1uM” value is on record?
A: 19.2%

Q: How did the “hERG current change (%, negative = inhibition) at 1uM” value turn out when `Cc1ccc(C(C(=O)NC2CCCCC2)N2CCCC2)cc1` (centres unmarked) was run?
A: 0.227%

Q: With `O=C(c1cc(-c2cccc(O)c2)on1)N1CCc2ccccc2C1` as the compound, how does the “hERG current change (%, negative = inhibition) at 1uM” value read?
A: -3.92%
